The other results are listed elsewhere or left out. The main result of the screen is listed elsewhere. These columns were measured beside it and carry no call.
Target: GTPase KRas (Homo sapiens) (UniProt P01116)
Test: Cysteine mutants labelled by reactive fragments (mass read-out) (AID 2202238)
Parameters: protein at 5 µM with 500 µM competing thiol for 1.5 h
Details: KRAS G12D cysteine mutants, disulfide tethering, MALDI-TOF labeling, stronger effect = higher value, fragment at 500 µM
[1] = measured here: G75C mutant labeling
[2] = measured here: H94C mutant labeling
[3] = measured here: I36C mutant labeling
[4] = measured here: L120C mutant labeling
[5] = measured here: M67C mutant labeling
[6] = measured here: M72C mutant labeling
[7] = measured here: N86C mutant labeling
[8] = measured here: P121C mutant labeling
[9] = measured here: S122C mutant labeling
[10] = measured here: S136C mutant labeling
[11] = measured here: G60C mutant labeling
[12] = measured here: N26C mutant labeling

Sequence of UniProt P01116 (P01116 whole entry, looked up, the tested form may be a part): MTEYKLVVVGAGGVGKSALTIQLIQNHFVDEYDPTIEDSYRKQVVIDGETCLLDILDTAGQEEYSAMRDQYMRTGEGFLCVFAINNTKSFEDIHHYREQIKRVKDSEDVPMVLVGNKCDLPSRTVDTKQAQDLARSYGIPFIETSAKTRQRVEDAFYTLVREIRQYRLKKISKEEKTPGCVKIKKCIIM

| Structure (SMILES) | percent labeling [1] [%] | percent labeling [2] [%] | percent labeling [3] [%] | percent labeling [4] [%] | percent labeling [5] [%] | percent labeling [6] [%] | percent labeling [7] [%] | percent labeling [8] [%] | percent labeling [9] [%] | percent labeling [10] [%] | percent labeling [11] [%] | percent labeling [12] [%] |
| --- | --- | --- | --- | --- | --- | --- | --- | --- | --- | --- | --- | --- |
| O=C1NCCN(C(=O)CCS)C1c1ccccc1 (configuration not stated) | 14.6 | 36.1 | 34.2 | 34.2 | 52.9 | 31.2 | 31.5 | 32.7 | 36.8 | 66.8 | – | – |
| Cc1ccc(CN(C)C)cc1NC(=O)CCS | 15.6 | 42.7 | 55.7 | 24.8 | 44.9 | 33.7 | 32.7 | 30.6 | 28.2 | 54.8 | – | – |
| O=C(NCCS)c1cn(CCO)c(=O)[nH]c1=O | 17.3 | 31.9 | 25.2 | 40.9 | 35.9 | 24.3 | 25.5 | 32.4 | 40.2 | 41 | 29.9 | 44.2 |
| O=C(NCCS)c1cccn1Cc1ccccc1Cl | 11.7 | 13.4 | 9.3 | 15 | 12.2 | 34.5 | 7.1 | 12.3 | 9.9 | 17.1 | 25.6 | 24.9 |
| COc1ccc(OCCN2CCN(C(=O)CCS)CC2)cc1 | 14.8 | 31.5 | 33.4 | 25.5 | 38.7 | 22.7 | 31.3 | 30.7 | 27.8 | 50.8 | – | – |
| Cc1cc(Br)ccc1NC(=O)CNC(=O)CCS | 11.7 | 23.5 | 23.1 | 20.7 | 18.5 | 24.6 | 19.3 | 21 | 14.6 | 29.5 | – | – |
| O=C(NCCS)C1CCC2(CC1)COCCO2 (configuration not stated) | 9.2 | 28.2 | 17.1 | 39 | 27.8 | 13.6 | 27.1 | 30.8 | 29.9 | 39.1 | 24.3 | 33.3 |
| O=C(NCCS)c1cccn1-c1c(Cl)cccc1Cl | 20.7 | 29.1 | 11.3 | 20.6 | 11.9 | 42.2 | 15.4 | 16.7 | 9.7 | 18.7 | 53.2 | 26 |
| CCn1ccnc1C1CCCCN1C(=O)CCS (configuration not stated) | 14.3 | 37.7 | 39.3 | 26.1 | 46.2 | 18.7 | 23.4 | 28.3 | 39.1 | 59.3 | – | – |
| O=C(NCCS)c1ccc(Br)cc1-n1cnnn1 | 11.9 | 21.7 | 16.4 | 18.8 | 21.4 | 21.6 | 20.9 | 42.7 | 13.7 | 26.8 | 37.2 | 25.5 |
| O=C(CCS)NC1CCN(Cc2c[nH]c3ncccc23)CC1 | 7.3 | 28.9 | 43.9 | 18.9 | 49.1 | 13.1 | 11.8 | 19 | 15.5 | 38.6 | – | – |
| CN(Cc1ccco1)C(=O)NCC(=O)NCCS | 7.1 | 24 | 17 | 37.5 | 21.8 | 10.3 | 18.7 | 24.6 | 24.3 | 32.1 | 21.3 | 26 |
| O=C(CCS)N1CCN(Cc2cc3ccccc3o2)CC1 | 24.4 | 34.2 | 65.6 | 27.5 | 71.5 | 32.8 | 23.1 | 32.5 | 28.8 | 55.8 | – | – |
| Cc1nn(C)c2nc(-c3ccccc3)cc(C(=O)NCCS)c12 | 12.6 | 11.8 | 9 | 9.1 | 13.8 | 33.2 | 10.1 | 8.6 | 0 | 24.6 | 25.2 | 38.3 |
| O=C(CCS)N1CCOCC1c1ncn(Cc2ccccc2)n1 (configuration not stated) | 13.3 | 36 | 33 | 34.6 | 46.5 | 29 | 13.8 | 31.1 | 29.8 | 54.6 | – | – |
| O=C(CCS)NCC(=O)Nc1cccc2cccnc12 | 12.6 | 18.9 | 22.6 | 30.4 | 39.8 | 32.3 | 8.7 | 24.7 | 25.5 | 37.7 | – | – |
| Cc1nn(CC(=O)NCCS)c2nc(C(C)C)cc(C(F)(F)F)c12 | 13.5 | 9.3 | 4 | 13.1 | 5.4 | 11.5 | 4.2 | 5.4 | 3.2 | 6.4 | 17.7 | 13.4 |
| Cn1ncc2cc(CNC(=O)CCS)cnc21 | 11.8 | 24.2 | 43.5 | 20.9 | 38.1 | 21.4 | 26.7 | 33.7 | 29.2 | 47.6 | – | – |
| COc1ccc2c(C)c(CCC(=O)NCCS)c(=O)oc2c1 | 14 | 22.7 | 19.8 | 19.7 | 16.6 | 28.1 | 15.9 | 17.4 | 10.1 | 20.8 | 35.8 | 31 |
| Cc1cc(N2CC(NC(=O)CCS)C2)cc(=O)o1 | 11.9 | 24.6 | 36.2 | 27.7 | 30.2 | 18.2 | 8.6 | 32 | 32.2 | 42.5 | – | – |
| O=C(NCCS)c1ccc(=O)n(-c2ccccc2F)c1 | 24.2 | 38.1 | 34.6 | 46.1 | 44 | 48.9 | 27.3 | 40.9 | 33.3 | 70.3 | 40.8 | 48.3 |
| Cc1nc2c(c(C)c1CC(=O)NCCS)c(=O)[nH]n2C | 14 | 30 | 22.6 | 31.2 | 24.4 | 19.8 | 23.9 | 30.2 | 28.7 | 34.9 | 29.6 | 31.9 |
| CN(CCCc1cc(-c2ccccc2)n(C)n1)C(=O)CCS | 17.1 | 50.4 | 37.1 | 29.6 | 47.2 | 36.2 | 24.7 | 30.4 | 28 | 63.4 | – | – |
